# Laboratory results from paper PMC12040169 (PLOS Biology, 2025).
# The list shows a part of the results.
# Tested on: T1, C. trachomatis L2/434/Bu expressing GFP (CTL2-GFP)
# T1 construct: L2/434/Bu GFP intracellular growth in HeLa cells
# Set-up: species or system HeLa; C. trachomatis total inclusion area by high-content imaging, normalised to DMSO
# Settings: total inclusion area; 28.5 h, 10 µM; inhibitor
# Method in brief: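 Post-fluorescence-read fixation, DNA staining with Hoechst and high-content imaging; GFP inclusion area and number per well, and nuclei counts, used as proxies for bacterial growth and host viability.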
row,SMILES,% of control remaining
1,CS(=O)(=O)N1CCCc2cc(-c3csc(N4CCOCC4)n3)ccc21 [CBK305022],33.4678
2,O=C(CNc1n[nH]c(=O)[nH]c1=O)N/N=C/c1ccc(C(=O)O)cc1 [CBK263529],108.043
3,COc1cc([N+](=O)[O-])ccc1NC(=O)C1CC(Cl)=CCC1C(=O)O (stereo not shown) [CBK264956],135.846
4,CC(C)NC(=O)N[C@H]1CCN2C(=O)c3cc(-c4ccccc4)ccc3NC(=O)[C@H]12 [CBK289351],85.4521
5,CC(C)OC(=O)c1ccc(NC(=O)c2csc3c2CCCC3)cc1 [CBK058649],79.2401
6,CCOC(=O)c1nc(C)sc1-c1ccnn1S(C)(=O)=O [CBK007130],105.821
7,CC(C)C(c1nnnn1Cc1ccccc1)N1CCOCC1 (stereo not shown) [CBK028054],79.0525
8,CC(C)c1cc2cc3ccc(=O)oc3cc2o1 [CBK033944],71.5396
9,CCN1CC2(CCCN(Cc3nnc(-c4cccnc4)o3)C2)CCC1=O (stereo not shown) [CBK306881],61.6824
10,c1ccc2cc(CCN3CCC(Oc4nccnc4OCCN4CCOCC4)CC3)ccc2c1 [CBK082942T],92.2332
11,Cc1nn(Cc2ccc(Cl)cc2)c(C)c1NC(=O)CCC(=O)O [CBK287051],111.72
12,CC1CCCCN1C(=O)CCn1c(-c2ccncc2)cc2cccnc21 (stereo not shown) [CBK282689],109.97
13,CCOC(=O)c1sc2nc(N3CCOCC3)c3c(c2c1N)CCCC3 [CBK131870],81.2686
14,Cc1ncccc1-c1cc2cccnc2n1CCCNC(=O)C1CC1 [CBK282687],96.4618
15,COC(=O)c1ccccc1NC(=O)c1ccc(-n2cnnn2)cc1 [CBK058360],63.7501
16,O=C(Nc1ccc2c(c1)OCCO2)c1cc(S(=O)(=O)N2CCCCC2)c(Cl)cc1Cl [CBK265790],130.997
17,Cn1nc(CC(=O)Nc2ccc(OC(=O)c3ccccc3)cc2)c2ccccc2c1=O [CBK264057],110.713
18,COc1cccc(CCC(=O)Nc2cnc(-c3cccc(C(F)(F)F)c3)c(-c3cccnc3)n2)c1 [CBK036835],93.3595
19,Cc1ccc(-c2nnc(COC(=O)c3c4c(nc5ccccc35)CCCC4)o2)cc1 [CBK269728],62.5921
20,CC(NS(=O)(=O)c1cccc2c(S(=O)(=O)NC(C)c3ccccc3)cccc12)c1ccccc1 (stereo not shown) [CBK267717],110.425
21,Clc1ccc(CN2CCC(NCCCn3cccn3)CC2)cc1 [CBK304004],73.7827
22,CCCc1n[nH]c(-c2c(F)cccc2F)c1C(=O)OCC [CBK113546],99.2491
23,COC(=O)CCc1ccc(S(=O)(=O)N2CCCN(Cc3c(-c4ccccc4)noc3C)CC2)cc1 [CBK063011],87.1502
24,CC1(C)CC(O[Si](C)(C)OC2CC(C)(C)NC(C)(C)C2)CC(C)(C)N1 [CBK261942],60.2788
25,COc1ccc(C(=O)C(OC(=O)c2cc(O)nc3ccccc23)c2ccccc2)cc1 (stereo not shown) [CBK264083],81.459
26,COc1ccc(C(=O)N2CCN(Cc3cc(OC)ccc3OC)CC2)cc1 [CBK263032],88.4422
27,COc1ccc(S(=O)(=O)N(C)c2ccc(N3CCNCC3)c3ccccc23)cc1 [CBK022404C],51.0811

row,SMILES,% of control remaining
1,CCN1CCN(Cc2c(C(F)(F)F)[nH]c3ncccc23)CC1 [CBK285362],85.1841
2,O=S(=O)(c1ccc(-c2ccccc2)cc1)N1CCCN(CCCOC2CCCCO2)CC1 (stereo not shown) [CBK063137],54.3914
3,Cc1cc(O)c(C(=O)Nc2cccc(Cl)c2)c(=O)n1Cc1ccco1 [CBK291143],88.3957
4,FC(F)(F)c1cccc(OCCN2CCOCC2)c1 [CBK269669C],111.257
5,CN1CCN(C(=O)CCC2CCCO2)C(c2ccccc2)C1 (stereo not shown) [CBK282015],78.5928
6,Cc1c(-c2ccnc(N)n2)nnn1-c1ccc(Cl)cc1Cl [CBK018733],54.7195
7,CN(C)C(=O)c1ccc(-c2ccc3c(c2)COC(C2CCN(C(=O)CC(C)(C)c4ccccc4)CC2)O3)cc1 (stereo not shown) [CBK149765],61.1445
8,Cc1ccc(OC(C)C(=O)N(C)c2ccccc2)cc1 (stereo not shown) [CBK268645],82.0319
9,CCCN1CCc2c(sc3nc(SCC(=O)c4ccccc4)n(-c4ccccc4)c(=O)c23)C1 [CBK262587],91.0044
10,CCOC(=O)C1CCN(CCOc2ccc3ccccc3c2)CC1 [CBK270128C],88.4163
11,CCCC(=O)N1CCC(c2nc(Cc3cccs3)no2)C1 (stereo not shown) [CBK283034],113.763
12,Cc1ccc(CN2CC[C@H]3NC(=O)c4ccccc4OCC/C=C/C[C@H]3C2)cn1 [CBK292056],92.3048
13,CC1(C)CC(NC(=O)COc2ccc([N+](=O)[O-])cc2)CC(C)(C)N1 [CBK266806],80.4846
14,Cc1ccc(NC(=O)Cn2cnc3c2c(=O)n(C)c(=O)n3C)c(C)c1 [CBK133276],101.728
15,Cc1nc([N+](=O)[O-])cn1CCC(=O)Nc1ccccc1Oc1ccccc1Cl [CBK298319],86.8759
16,Cc1c(Cl)c([N+](=O)[O-])nn1CC(=O)N1CCN(Cc2ccccc2)CC1 [CBK261720],94.3878
17,COc1ccc(C(=O)N2CCc3ccccc32)c(OC)n1 [CBK200281],104.049
18,O=C(CN1CCCC2(CCN(C(=O)c3ccoc3)C2)C1)Nc1ccc(F)c(Cl)c1 (stereo not shown) [CBK132822],84.8537
19,CCCCn1nc2[nH]c(=O)cc(C(F)F)c2c1C [CBK288011],69.729
20,COc1ccc(C2C=C(C)Nc3nc(N)nn32)cc1 (stereo not shown) [CBK287906],108.748
21,O=C(O)c1cccc(C(=O)c2cccc(C(=O)O)c2)c1 [CBK263933],108.077
22,COc1ccc(CN2CCC(N3CCc4ccccc4C3)CC2)cc1OCc1ccccc1 [CBK264629G],75.5834
23,CC(C)CC1OC(NC2CCCCCC2)=NC1=O (stereo not shown) [CBK074901],44.983
24,O=C(CC(NCCO)C(=O)O)Nc1cccc(C(F)(F)F)c1 (stereo not shown) [CBK267065],104.113
25,Cc1ccnc(SCC(=O)Nc2sc3c(c2C(=O)Nc2ccccc2)CCCC3)n1 [CBK266348],104.286
26,O=C(c1cccnc1)C1CCN(C(=O)c2ccccc2F)CC1 [CBK283853],81.1477
27,CCC(=O)N1CCCC1c1nc(C)c2c(n1)N(Cc1ccccc1OC)CCC2 (stereo not shown) [CBK285642],104.442

row,SMILES,% of control remaining
1,COC(=O)C(=O)N1CC[C@H]2NC(=O)N(Cc3ccccc3)C(=O)[C@H]21 [CBK289292],109.876
2,Cn1c(=O)n(CC(=O)NCCc2ccccc2)c2cccnc21 [CBK283910],111.734
3,C#CC1(OC(=O)CC)CCN(CCCC(=O)c2ccc(F)cc2)CC1 [CBK025277C],87.4338
4,O=C(Cc1cccc2ccccc12)Nc1nnc(C2=COCCO2)o1 [CBK287414],107.434
5,Cc1cccc2[nH]c(-c3ccccc3)nc12 [CBK000110],95.4168
6,Cc1ccc(C(=O)O)cc1S(=O)(=O)Nc1ccc(-c2cn3ccsc3n2)cc1 [CBK296688],97.1479
7,COc1ccc(F)c(CNCC2CCN(C(=O)OC(C)(C)C)CC2)c1 [CBK056716],101.126
8,Fc1ccccc1-c1nccnc1NCc1ccncc1 [CBK037540],106.95
9,O=C(/C=C\c1cn(-c2ccccc2)nc1-c1cccc([N+](=O)[O-])c1)n1nnc2ccccc21 [CBK265273],110.804
10,Cc1noc(NS(=O)(=O)c2ccc(NC(=O)/C=C/c3ccc(Cl)cc3Cl)cc2)c1C [CBK263115],85.4115
11,Cc1nc(N2CCN(C)CC2)ncc1C(=O)NCCSc1cnn[nH]1 [CBK306623],53.8951
12,Cc1ccc(S(=O)(=O)N(CC(=O)NC2CCCC2)Cc2ccccc2)cc1 [CBK263166],91.8523
13,CN(Cc1ccccc1)C1(O)C(=O)Nc2ccc(Cl)cc21 (stereo not shown) [CBK269703],43.6002
14,O=c1[nH]c2ccccc2n1CCCN1CCC2(CC1)CN(CCO)c1ccccc12 [CBK137133],68.3391
15,O=C(O)c1cc(NC(=O)C(c2ccccc2)c2ccccc2)cc(C(=O)O)c1 [CBK261191],82.1466
16,O=[N+]([O-])c1ccc(NC(c2ccccc2)C2CC2)nc1 (stereo not shown) [CBK295317],96.7814
17,Cc1cc(-c2nccnc2NCCCN2CCOCC2)cc(C)c1O [CBK036598],107.859
18,Cc1cccc(=O)n1CCCn1cnc2nccnc2c1=O [CBK307186],67.1898
19,Cc1ccc(Cn2ncc3c(N4CCCC4)ncnc32)cc1 [CBK287601],88.7391
20,O=C(CSc1ccc2ccccc2c1)NCc1ccco1 [CBK269699],83.1071
21,CCC(=O)N1CCC2(CC1)CNC(=O)c1cc(C)ccc1O2 [CBK282468],112.482
22,CCN1CCN(S(=O)(=O)c2cccc3c(S(=O)(=O)N4CCN(CC)CC4)cccc23)CC1 [CBK269611],104.693
23,Cc1nc(C)n(CC2CCCCN2Cc2cn3ccccc3n2)n1 (stereo not shown) [CBK304008],81.7049
24,O=S(=O)(NCc1ccccc1)c1ccc(Cl)c(S(=O)(=O)NCc2ccccc2)c1 [CBK263251],65.6379
25,O=C(Cn1cccc(C(=O)NCc2ccccc2)c1=O)NC1(c2ccccc2)CCCC1 [CBK286058],101.891
